Measured values reported in the antibiotic and cytotoxicity screens of Wong et al. (2023).
Some of the results follow.

Each compound was assayed on HSkMC (human skeletal muscle cells) (assay: cytotoxicity call (relative viability < 0.9)). Conditions: 10 µM.

| SMILES | cytotoxicity call |
| --- | --- |
| C[C@@H]1CN([C@H](C)CO)C(=O)Cc2cc(NS(=O)(=O)c3ccc(F)cc3)ccc2O[C@@H]1CN(C)Cc1ccc(Oc2ccccc2)cc1 | active |
| CN(C)CC(=O)N1[C@@H]2c3ccc(-c4ccccc4)c(=O)n3C[C@H]1[C@H](CO)[C@H]2C(=O)N1CCN(C)CC1 | inactive |
| O=C(CN1CCOCC1)NCC[C@H]1CC[C@H](NC(=O)c2ccc3c(c2)OCO3)[C@H](CO)O1 | inactive |
| COc1ccc(NC(=O)Nc2ccc3c(c2)CC(=O)N([C@@H](C)CO)C[C@@H](C)[C@@H](CN(C)Cc2ccc(C(F)(F)F)cc2)O3)cc1 | inactive |
| C[C@@H]1CN([C@H](C)CO)C(=O)c2cc(NS(=O)(=O)c3cccs3)ccc2O[C@@H]1CN(C)S(=O)(=O)c1ccc(F)cc1 | inactive |
| C[C@@H]1CN([C@@H](C)CO)C(=O)c2cccc(NC(=O)Nc3ccc(C(F)(F)F)cc3)c2O[C@@H]1CN(C)Cc1ccccc1 | inactive |
| CCCC(=O)Nc1ccc(OCC(O)CNC(C)C)c(C(C)=O)c1.Cl (stereo not given) | inactive |
| C[C@@H]1CN([C@H](C)CO)C(=O)c2c(c3ccccc3n2C)-c2ccccc2CO[C@H]1CN(C)Cc1cccc(O)c1 | inactive |
| Cc1occc1C(=O)NNC(=O)C1CC1 | inactive |
| C[C@@H]1CCCCO[C@H](CN(C)S(=O)(=O)c2ccc(F)cc2)[C@@H](C)CN([C@@H](C)CO)C(=O)c2cc(NC(=O)C3CCCCC3)ccc2O1 | inactive |
| C[C@@H]1CN([C@@H](C)CO)C(=O)c2cc(NC(=O)Nc3ccc4c(c3)OCO4)ccc2O[C@@H]1CN(C)Cc1ccc(-c2ccccc2)cc1 | inactive |
| Cc1ccc(S(=O)(=O)N[C@@H](Cc2ccccc2)C(=O)NCCn2cc(-c3ccccc3N)nn2)cc1 | inactive |
| COCC(=O)N1CC[C@]2(CC1)CN(Cc1cccc(c1)OC)[C@@H](CO)c1c2c2ccc(cc2n1C)OC | inactive |
| COCC(=O)Nc1ccc2c(c1)OC[C@@H](C)N(Cc1cccc(F)c1)C[C@H](C)[C@H](OC)CN(C)C2=O | inactive |
| C[C@H](CO)N1C[C@H](C)[C@@H](CN(C)Cc2ccc(C(F)(F)F)cc2)OCCCC[C@H](C)Oc2ccc(NC(=O)Nc3ccccc3)cc2C1=O | inactive |
| C[C@H](CO)N1C[C@H](C)[C@H](CN(C)Cc2ccc(C(=O)Nc3ccccc3N)cc2)Oc2ccc(NC(=O)Cc3cn(C)c4ccccc34)cc2C1=O | inactive |
| OCc1cn(-c2ccccc2)nn1 | inactive |
| COc1oc(C(=O)NC2CCCCC2)c(-c2ccc(Cl)cc2)c1S(=O)(=O)/C=C/c1ccccc1 | inactive |
| C[C@@H]1CN([C@@H](C)CO)C(=O)CCCn2cc(nn2)CO[C@@H]1CN(C)C(=O)Nc1ccc(C(C)(C)C)cc1 | inactive |
| COC(=O)C[C@@H]1CC[C@H]2[C@@H](COC[C@H](O)CN2S(=O)(=O)c2ccc(F)cc2)O1 | inactive |

| SMILES | cytotoxicity call |
| --- | --- |
| COc1ccc(CN(C)C[C@H]2OCCCC[C@@H](C)Oc3ccc(NC(=O)C4CCCCC4)cc3C(=O)N([C@H](C)CO)C[C@H]2C)cc1 | inactive |
| COc1ccc(NC(=O)Nc2ccc3c(c2)C(=O)N([C@H](C)CO)C[C@H](C)[C@@H](CN(C)C(=O)NC(C)C)OCCCC[C@H](C)O3)cc1 | inactive |
| CCOc1ccc(-n2c([C@@H](C)N(Cc3cccnc3)C(=O)Cc3ccc(F)c(C(F)(F)F)c3)nc3ncccc3c2=O)cc1 | inactive |
| CN(C)Cc1cn(CC[C@@H]2CC[C@H](N)[C@@H](CO)O2)nn1 | inactive |
| CN(C)C1C(O)=C(C(N)=O)C(=O)C2(O)C(O)=C3C(=O)c4c(O)cccc4C(C)(O)C3CC12.Cl (stereo not given) | inactive |
| CN1C(=O)c2cc(NC(=O)c3cscn3)ccc2OC[C@H]2O[C@H](CC(=O)N3CCOCC3)CC[C@@H]21 | inactive |
| COc1ccc(-c2cnc3c(c2)C(=O)N([C@H](C)CO)C[C@H](C)[C@H](CN(C)S(=O)(=O)c2cccs2)O3)cc1 | inactive |
| CN1CCC(N(C)C(=O)COc2ccc(S(=O)(=O)N3CCOCC3)cc2)CC1 | inactive |
| Nc1ccn(C2CCC(CO)O2)c(=O)n1 (stereo not given) | inactive |
| C(=N\n1cnnc1)/c1ccccn1 | inactive |
| C[C@@H]1CCCCO[C@@H](CN(C)C(=O)C2CCCCC2)[C@H](C)CN([C@@H](C)CO)C(=O)c2cc(NC(=O)Nc3ccc(C(F)(F)F)cc3)ccc2O1 | inactive |
| C[C@H]1CN([C@@H](C)CO)C(=O)Cc2cc(NC(=O)Cn3cnnn3)ccc2O[C@H]1CN(C)Cc1ccc(Oc2ccccc2)cc1 | inactive |
| Cc1ccc(S(=O)(=O)Nc2ccc3c(c2)C(=O)N([C@@H](C)CO)C[C@H](C)[C@H](CN(C)Cc2ccccc2)OCCCC[C@@H](C)O3)cc1 | inactive |
| C[C@@H]1CN([C@@H](C)CO)C(=O)CCCn2nncc2CO[C@H]1CN(C)C(=O)Nc1ccc(C(F)(F)F)cc1 | inactive |
| C[C@@H]1CN([C@@H](C)CO)C(=O)Cc2cc(NS(=O)(=O)c3cn(C)cn3)ccc2O[C@H]1CN(C)C(=O)Nc1ccc(F)cc1 | inactive |
| C[C@H](CO)N1C[C@H](C)[C@@H](CN(C)S(C)(=O)=O)Oc2c(NC(=O)c3cnccn3)cccc2C1=O | inactive |
| Nc1nnnn1/N=C\c1ccc(O)cc1 | inactive |
| C[C@@H]1CN([C@H](C)CO)C(=O)Cc2cc(NS(=O)(=O)c3cn(C)cn3)ccc2O[C@@H]1CN(C)S(=O)(=O)c1ccccc1 | inactive |
| Cc1noc(C)c1S(=O)(=O)N(C)C[C@H]1Oc2ccc(NS(=O)(=O)c3cccs3)cc2CC(=O)N([C@H](C)CO)C[C@H]1C | inactive |
| C[C@@H]1CCCCO[C@@H](CN(C)CC2CC2)[C@@H](C)CN([C@H](C)CO)C(=O)c2cc(NC(=O)Nc3ccc(F)cc3)ccc2O1 | inactive |
